# Measurements from PubChem BioAssay AID445 (National Center for Advancing Translational Sciences (NCATS), 2006).
# Hit rate of the full screen: of about 110,000 compounds, about 40 (0.04%) were called active. This list was built around the results that the source calls inconclusive (neither active nor inactive); the mix of calls is not that of the screen. The call rests on the fitted dose curve; in most records, active means well fitted curve in the direction sought with a large enough effect in the signal ratio (not every such curve was filed as active); inconclusive means small, poorly fitted or top-dose-only effect, or a change in a side signal; inactive means flat fitted curve, though single readings scatter; the % refers to the signal ratio. A potency beside an inconclusive call is a rough fit, not a confirmed value.
# Assay: IkB Signaling;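 on IkBa stabilization activation: 0% = basal untreated cells and 100% = reference inhibitor full response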
# Details: ABC-DLBCL IkBa-CBG/CBR dual luciferase ratio (green luciferase fused to IkBa over red control in OCI-Ly3 lymphoma cells), 4 h; IkBa stabilization activation: at 57.1 µM (top of the series), scaled: untreated 0%, proteasome inhibitor 100% unless noted
# How it was run: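 In this assay, an IκBα–CBG68 fusion accumulates when IKK-driven degradation is blocked; native CBR normalizes for cell number. OCI-Ly3 cells were treated 4 h with compound and doxycycline, then green and red light read after Chroma-Glo addition.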
# Potency means the concentration at half of the fitted maximal effect.
SMILES,IkBa stabilization activation,Potency
Cc1cccc2cc(CN(CC3CCCO3)S(=O)(=O)c3ccccc3)c3nnnn3c12 (centres undefined),inactive: -1.87%,–
Cn1c(=O)c2c(-c3ccccc3Br)n(Cc3ccccc3)cc2n(C)c1=O,inconclusive: 2.57% [signal inhibitor],–
NS(=O)(=O)c1ccc(NC(=O)CN2CCN(c3ccc(F)cc3)CC2)cc1,inconclusive: -0.235% [signal inhibitor],–
Cc1ccc(Cl)cc1-n1ncc2c(NCCC3=CCCCC3)ncnc21,inconclusive: -1.68% [signal inhibitor],–
Cc1ccc(S(=O)(=O)C(CNC(=O)COc2ccc(Cl)cc2)c2ccco2)cc1 (centres undefined),inactive: 5.35%,–
Cc1ccc(CNC(=O)c2cccc(NC(=O)N3CCSc4ncccc43)c2)cc1,inconclusive: 1.51% [signal inhibitor],–
Cc1ccc(NC(=O)N2CCC(C(=O)NCc3ccccc3)CC2)cc1,inactive: 0.52%,–
Cc1cc(C)cc(NC(=O)CCCc2nnc3n(CC(C)C)c(=O)c4sccc4n23)c1,inconclusive: -1.44% [signal inhibitor],–
Cc1ccc(NC(=O)c2ccc3c(c2)NC(=O)c2ccccc2S3)cc1,inconclusive: 6.23% [signal inhibitor],–
CCC1S/C(=C(\C#N)C(=O)NCc2ccco2)N(c2ccc(Br)cc2)C1=O (centres undefined),inconclusive: 12.4% [signal inhibitor],–
COc1ccc(-n2c(=O)c(C)nc3cnc(N4CCNCC4)nc32)cc1,"inactive: -0.673% [at 11.4 µM, scaled: untreated 0%, proteasome inhibitor 100%]",–
COc1ccc(CCn2c(N)c(S(=O)(=O)c3cccs3)c3nc4ccccc4nc32)cc1OC,inactive: 3.32%,–
Cc1ccc(Cn2ccnc2SCC(=O)Nc2ccc3c(c2)OCCO3)cc1,inactive: 0.634%,–
CC(C)(C)c1nc(SCC(=O)NCc2ccco2)c2ccccc2n1,inconclusive: 3.79% [signal inhibitor],–
CCOc1cc(C2CC(=O)Nc3c2c(=O)nc(SCc2cccc(Cl)c2)n3C)ccc1O (centres undefined),inconclusive: 3.42% [signal inhibitor],–
O=C(Nc1cccc(Cl)c1)c1cc(S(=O)(=O)N2CCCc3ccccc32)ccc1F,inconclusive: 16.8% [signal inhibitor],–
Cc1ccccc1CNC(=O)c1cc2cccc3c2n1CC(C)S3 (centres undefined),inconclusive: 1.05% [signal inhibitor],–
O=c1oc2ccccc2cc1NCc1ccccc1O,–,"inconclusive: 25.1 µM [signal inhibitor, partial curve]"
COc1cccc(C=Nc2ccc3c(c2)OCCO3)c1O,inactive: 16.7%,–
COc1ccc(Cl)cc1NC(=O)Cn1nnc(C(=O)NCc2cccs2)c1N,inactive: -2.67%,–
COc1ccc2c(CNCc3ccco3)c(C(=O)O)n(Cc3ccccc3)c2c1,inactive: 0.225%,–
COc1ccccc1NC(=O)COC(=O)CC(C)(C)CC1=NS(=O)(=O)c2ccccc2N1,inconclusive: 0.355% [signal inhibitor],–
COc1cccc(-c2cc(C(=O)N3CCN(c4ncccn4)CC3)c3ccccc3n2)c1,inconclusive: 3.26% [signal inhibitor],–

SMILES,IkBa stabilization activation,Potency
COc1ccc(N2CCN(C(=O)c3c4c(nc5ccccc35)C(=O)N(C3CCCCC3)C4)CC2)cc1,–,"inconclusive: 31.6 µM [rising, single point]"
O=C(Nc1ccc2nc(SCC(=O)N3CCCC3)sc2c1)c1cccc(F)c1,inconclusive: 1.14% [signal inhibitor],–
Cc1cc(C)n2nc(SCc3cc(=O)n4ccccc4n3)nc2n1,inactive: -0.209%,–
COc1ccc(-c2nnc(SCC(=O)c3ccc(NC(C)=O)cc3)o2)cc1OC,inactive: -1.07%,–
Cc1ccc(C2c3c(-c4ccccc4O)n[nH]c3C(=O)N2Cc2ccncc2)cc1 (centres undefined),inconclusive: 2.13% [signal inhibitor],–
COc1cc(-c2cc(=O)c3ccccc3o2)ccc1O,"inactive: -3.01% [at 11.4 µM, scaled: untreated 0%, proteasome inhibitor 100%]",–
COC(=O)c1c(-c2cccs2)csc1NC(=O)c1ccc(C(C)(C)C)cc1,inactive: 1.26%,–
CSc1ccc(C2c3[nH]c4ccccc4c3CCN2C(=O)CCC2CCCC2)cc1 (centres undefined),inactive: 0.0318%,–
COc1ccc2cc(C(c3nnnn3C3CCCC3)N3CCc4ccccc4C3)c(=O)[nH]c2c1 (centres undefined),inconclusive: 12.5% [signal inhibitor],–
O=C(c1cc(S(=O)(=O)N2CCOCC2)ccc1F)N1CCCc2ccccc21,inactive: 1.7%,–
COC(=O)c1ccc(NC(=O)CN(C)S(=O)(=O)c2ccc(OC)c(C)c2)cc1,inconclusive: 0.55% [signal inhibitor],–
COc1cc(S(=O)(=O)n2ccnc2C(C)C)ccc1Br,inactive: 1.35%,–
O=C(CN(c1cccc(C(F)(F)F)c1)S(=O)(=O)c1ccccc1)Nc1cccc(Cl)c1,inconclusive: 1.5% [signal inhibitor],–
Cc1ccc(-c2nc(S(=O)(=O)c3ccc(C)cc3)c(N3CCCCC3)o2)cc1,inactive: 5.23%,–
CC(=O)S[C@@H]1CC2=CC(=O)CC[C@@]2(C)[C@H]2CC[C@]3(C)[C@H](CC[C@@]34CCC(=O)O4)[C@H]12,inactive: -7.66%,–
CN(C)c1ncc2nc(CCc3ccccc3)c(=O)n(-c3ccccc3)c2n1,"inactive: -3.81% [at 11.4 µM, scaled: untreated 0%, proteasome inhibitor 100%]",–
O=C(CSc1nnnn1Cc1ccccc1)Nc1ccc2c(c1)OCO2,inactive: 0.438%,–
CCOC(=O)c1c(-c2ccc(C)cc2C)csc1NC(=O)c1ccccc1Cl,inconclusive: 5.26% [signal inhibitor],–
CCOC(=O)c1sc(-c2ccccc2)cc1N,inactive: 0.427%,–
Clc1ccc(OCc2nc(-c3ccccn3)n[nH]2)cc1,inconclusive: 9.8% [signal inhibitor],–
COc1ccc(C2C(=O)N(C3CCCCCC3)CC(=O)N2Cc2ccccc2)cc1 (centres undefined),inactive: -0.506%,–
CC(CNC(=O)c1ccc(Nc2nc3ccccc3n3nnnc23)cc1)c1ccccc1 (centres undefined),–,"inconclusive: 25.1 µM [signal inhibitor, partial curve]"
CCOc1cccc(C(=O)Nc2cccc(-c3nc4ncccc4o3)c2C)c1,inactive: 2.42%,–

SMILES,IkBa stabilization activation,Potency
CCC(C(=O)NCCc1ccc(SC)cc1)n1nc(C)c2c(C)n(-c3ccc(C)cc3)nc2c1=O (centres undefined),inconclusive: -0.873% [signal inhibitor],–
COc1cc(C2CC(=O)N(CC(=O)Nc3ccccc3F)c3ccccc3S2)cc(OC)c1OC (centres undefined),inconclusive: -0.389% [signal inhibitor],–
O=C(Nc1ccc(F)cc1F)c1cc(-c2ccc3c(c2)OCO3)on1,–,"inconclusive: 20 µM [signal inhibitor, partial curve]"
Cc1ccc(-n2nc(CO)c(C(=O)NC(C)c3ccccc3)n2)cc1C (centres undefined),inactive: -1.17%,–
Cc1cc(C)cc(OCc2ccc(C(=O)O)o2)c1,–,"inconclusive: 15.8 µM [signal inhibitor, partial curve]"
Cc1ccc(CCNC(=O)c2ccc(CSc3nc4ccncc4n3Cc3ccc(F)cc3)cc2)cc1,inconclusive: 0.665% [signal inhibitor],–
COC(=O)c1ccccc1NC(=O)CCc1c(C)nc2cc(-c3ccc(Cl)cc3)nn2c1C,–,"inconclusive: 12.6 µM [signal inhibitor, partial curve]"
Cc1cccc(OCC(=O)Nc2cccc(-c3nc4ccccc4s3)c2)c1,–,inconclusive: 2.51 µM [signal inhibitor]
Cc1cccc(N=c2oc3cc(O)ccc3cc2C(N)=O)c1,–,"inconclusive: 0.0794 µM [signal inhibitor, full curve]"
CC(C)CNc1cc(NC2CCCCC2)c2c3c(onc13)-c1ccccc1C2=O,inconclusive: -0.00543% [signal inhibitor],–
Cc1ccc(Cl)cc1N1CCN(C(=O)c2cn(C)c3ccc(S(=O)(=O)N4CCCCC4)cc3c2=O)CC1,inconclusive: 4.32% [signal inhibitor],–
CSc1ccc(CCNC(=O)CCc2c(C)nc3c4cccnc4nn3c2C)cc1,inconclusive: 1.03% [signal inhibitor],–
O=S(=O)(Nc1cccc(-c2ccc(N3CCCCC3)nn2)c1)c1ccc(F)cc1F,inactive: -1.74%,–
COc1cccc(CNCc2c(C(=O)O)c(C)n(Cc3ccc(F)cc3Cl)c2C)c1OC,inconclusive: 0.221% [signal inhibitor],–
O=C(Nc1ccc(F)c(F)c1)c1ccc(F)c(S(=O)(=O)N2CCC3(CC2)OCCO3)c1,inconclusive: 0.788% [signal inhibitor],–
CCSc1nc2sc3c(c2c(=O)n1-c1ccc(C)cc1)CCCC3,inconclusive: 5.78% [signal inhibitor],–
O=C(CC1N=C2c3ccccc3N=C(SCc3cccc(F)c3)N2C1=O)NC1CCCCC1 (centres undefined),inconclusive: 0.842% [signal inhibitor],–
Cc1ccccc1OCCn1nc(C(=O)O)c2ccccc2c1=O,inconclusive: 3.76% [signal inhibitor],–
Cc1nc2nc(C)c(CCC(=O)NCc3cccc(Cl)c3)c(C)n2n1,inactive: 1.65%,–
O=C(Cn1c(=O)n(Cc2ccco2)c(=O)c2sc3ccccc3c21)Nc1ccccc1C(F)(F)F,–,"inconclusive: 20 µM [rising, single point]"
CCCc1[nH]nc2c1C(c1cn[nH]c1-c1ccc(F)cc1)C(C#N)=C(N)O2 (centres undefined),–,"inconclusive: 25.1 µM [signal inhibitor, partial curve]"
Cc1ccc(-n2nc(C)c3c(C)c(CCC(=O)NCc4ccccc4Cl)c(C)nc32)cc1,inconclusive: 4.93% [signal inhibitor],–
CC(=O)NCCNC(=O)c1ccc2c(=O)n(CCc3ccccc3)c(=O)[nH]c2c1,inconclusive: -4.12% [signal inhibitor],–
